This is one part of the list. Rule as the data show it: active = 3.2 or more and inactive = the rest. Only a few entries rise above the background.
molecular target: SHP2 C-SH2 domain E139D; experiment: enrichment score (SH2-bound / input frequency) (ratio); bacterial display of known human phosphotyrosine sites (pTyr-Var adds point mutants) read by sequencing; higher = stronger binding; tyrosines were phosphorylated by kinases first; details: peptide library: pTyr-Var
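Also: displayed peptides selected on beads carrying the immobilized SH2 domain, with library peptides lacking any tyrosine serving as negative controls.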

| Binder | enrichment score |
| --- | --- |
| DLQDEYDFKRK [STAT1_Y170_C174R] | inactive: 0.501 |
| LLKNMYLMLDN [STAT1_Y203_K201N] | inactive: 1.61 |
| LLKKVYLMLDN [STAT1_Y203_M202V] | inactive: 1.59 |
| PLKFLYPNIDR [STAT1_Y668_K673R_YF] | inactive: 1.38 |
| PLKFLYPNIDK [STAT1_Y668_YF] | inactive: 1.44 |
| PKGTGCIKTEL [STAT1_Y701_Y701C] | inactive: 1.27 |
| QSVEPYTKQQL [STAT3_Y640] | inactive: 0.528 |
| QSLEPYTKQQL [STAT3_Y640_V637L] | inactive: 0.478 |
| QSMEPYTKQQL [STAT3_Y640_V637M] | inactive: 0.605 |
| IDGLEYLHSQG [STK11_Y166] | inactive: 0.914 |
| IDDLEYLHSQG [STK11_Y166_G163D] | inactive: 0.755 |
| EDDIIYTQDFT [STK11_Y362] | inactive: 0.689 |
| LGEGSYGKVKE [STK11_Y60] | inactive: 0.805 |
| VPDANYTSDEE [STK33_Y439] | inactive: 0.397 |
| VEDPEYAVTQL [STOML2_Y124] | inactive: 0.711 |
| VEDPEYAVTQP [STOML2_Y124_L129P] | inactive: 0.404 |
| ESMLRYEVYGG [STOX1_Y607] | inactive: 0.731 |
| ESMLRYDVYGG [STOX1_Y607_E608D] | inactive: 0.989 |
| ESMLRYDVFGG [STOX1_Y607_E608D_YF] | inactive: 0.936 |

molecular target: SHP2 C-SH2 domain wild-type; experiment: as above; details: peptide library: pTyr-Var

| Binder | enrichment score |
| --- | --- |
| DLQDEYDFKRK [STAT1_Y170_C174R] | inactive: 0.655 |
| LLKNMYLMLDN [STAT1_Y203_K201N] | inactive: 2.21 |
| LLKKVYLMLDN [STAT1_Y203_M202V] | inactive: 1.35 |
| PLKFLYPNIDR [STAT1_Y668_K673R_YF] | inactive: 1.65 |
| PLKFLYPNIDK [STAT1_Y668_YF] | inactive: 1.49 |
| PKGTGCIKTEL [STAT1_Y701_Y701C] | inactive: 1.14 |
| QSVEPYTKQQL [STAT3_Y640] | inactive: 0.408 |
| QSLEPYTKQQL [STAT3_Y640_V637L] | inactive: 0.54 |
| QSMEPYTKQQL [STAT3_Y640_V637M] | inactive: 0.455 |
| IDGLEYLHSQG [STK11_Y166] | inactive: 0.816 |
| IDDLEYLHSQG [STK11_Y166_G163D] | inactive: 0.631 |
| EDDIIYTQDFT [STK11_Y362] | inactive: 0.476 |
| LGEGSYGKVKE [STK11_Y60] | inactive: 0.966 |
| VPDANYTSDEE [STK33_Y439] | inactive: 0.513 |
| VEDPEYAVTQL [STOML2_Y124] | inactive: 0.62 |
| VEDPEYAVTQP [STOML2_Y124_L129P] | inactive: 0.508 |
| ESMLRYEVYGG [STOX1_Y607] | inactive: 0.792 |
| ESMLRYDVYGG [STOX1_Y607_E608D] | inactive: 0.707 |
| ESMLRYDVFGG [STOX1_Y607_E608D_YF] | inactive: 0.824 |

molecular target: SHP2 N-SH2 domain L43F; experiment: as above; details: peptide library: pTyr-Var

| Binder | enrichment score |
| --- | --- |
| DLQDEYDFKRK [STAT1_Y170_C174R] | inactive: 0.626 |
| LLKNMYLMLDN [STAT1_Y203_K201N] | inactive: 2.04 |
| LLKKVYLMLDN [STAT1_Y203_M202V] | inactive: 1.44 |
| PLKFLYPNIDR [STAT1_Y668_K673R_YF] | inactive: 1.54 |
| PLKFLYPNIDK [STAT1_Y668_YF] | inactive: 1.49 |
| PKGTGCIKTEL [STAT1_Y701_Y701C] | inactive: 0.828 |
| QSVEPYTKQQL [STAT3_Y640] | inactive: 0.492 |
| QSLEPYTKQQL [STAT3_Y640_V637L] | inactive: 0.696 |
| QSMEPYTKQQL [STAT3_Y640_V637M] | inactive: 0.583 |
| IDGLEYLHSQG [STK11_Y166] | inactive: 1.03 |
| IDDLEYLHSQG [STK11_Y166_G163D] | inactive: 0.482 |
| EDDIIYTQDFT [STK11_Y362] | inactive: 0.62 |
| LGEGSYGKVKE [STK11_Y60] | inactive: 0.695 |
| VPDANYTSDEE [STK33_Y439] | inactive: 0.492 |
| VEDPEYAVTQL [STOML2_Y124] | inactive: 0.746 |
| VEDPEYAVTQP [STOML2_Y124_L129P] | inactive: 0.55 |
| ESMLRYEVYGG [STOX1_Y607] | inactive: 0.646 |
| ESMLRYDVYGG [STOX1_Y607_E608D] | inactive: 0.736 |
| ESMLRYDVFGG [STOX1_Y607_E608D_YF] | inactive: 0.963 |

molecular target: SHP2 N-SH2 domain T42A; experiment: as above; details: peptide library: pTyr-Var

| Binder | enrichment score |
| --- | --- |
| DLQDEYDFKRK [STAT1_Y170_C174R] | inactive: 0.522 |
| LLKNMYLMLDN [STAT1_Y203_K201N] | active: 4.6 |
| LLKKVYLMLDN [STAT1_Y203_M202V] | inactive: 1.44 |
| PLKFLYPNIDR [STAT1_Y668_K673R_YF] | inactive: 1.75 |
| PLKFLYPNIDK [STAT1_Y668_YF] | inactive: 1.37 |
| PKGTGCIKTEL [STAT1_Y701_Y701C] | inactive: 0.733 |
| QSVEPYTKQQL [STAT3_Y640] | inactive: 0.54 |
| QSLEPYTKQQL [STAT3_Y640_V637L] | inactive: 0.54 |
| QSMEPYTKQQL [STAT3_Y640_V637M] | inactive: 0.594 |
| IDGLEYLHSQG [STK11_Y166] | inactive: 0.737 |
| IDDLEYLHSQG [STK11_Y166_G163D] | inactive: 0.602 |
| EDDIIYTQDFT [STK11_Y362] | inactive: 0.627 |
| LGEGSYGKVKE [STK11_Y60] | inactive: 0.61 |
| VPDANYTSDEE [STK33_Y439] | inactive: 0.459 |
| VEDPEYAVTQL [STOML2_Y124] | inactive: 0.686 |
| VEDPEYAVTQP [STOML2_Y124_L129P] | inactive: 0.526 |
| ESMLRYEVYGG [STOX1_Y607] | inactive: 0.643 |
| ESMLRYDVYGG [STOX1_Y607_E608D] | inactive: 0.583 |
| ESMLRYDVFGG [STOX1_Y607_E608D_YF] | inactive: 0.866 |

molecular target: SHP2 N-SH2 domain T52S; experiment: as above; details: peptide library: pTyr-Var

| Binder | enrichment score |
| --- | --- |
| DLQDEYDFKRK [STAT1_Y170_C174R] | inactive: 0.606 |
| LLKNMYLMLDN [STAT1_Y203_K201N] | inactive: 2.24 |
| LLKKVYLMLDN [STAT1_Y203_M202V] | inactive: 1.29 |
| PLKFLYPNIDR [STAT1_Y668_K673R_YF] | inactive: 1.65 |
| PLKFLYPNIDK [STAT1_Y668_YF] | inactive: 1.45 |
| PKGTGCIKTEL [STAT1_Y701_Y701C] | inactive: 0.894 |
| QSVEPYTKQQL [STAT3_Y640] | inactive: 0.516 |
| QSLEPYTKQQL [STAT3_Y640_V637L] | inactive: 0.628 |
| QSMEPYTKQQL [STAT3_Y640_V637M] | inactive: 0.593 |
| IDGLEYLHSQG [STK11_Y166] | inactive: 1 |
| IDDLEYLHSQG [STK11_Y166_G163D] | inactive: 0.713 |
| EDDIIYTQDFT [STK11_Y362] | inactive: 0.641 |
| LGEGSYGKVKE [STK11_Y60] | inactive: 0.587 |
| VPDANYTSDEE [STK33_Y439] | inactive: 0.469 |
| VEDPEYAVTQL [STOML2_Y124] | inactive: 0.734 |
| VEDPEYAVTQP [STOML2_Y124_L129P] | inactive: 0.667 |
| ESMLRYEVYGG [STOX1_Y607] | inactive: 0.861 |
| ESMLRYDVYGG [STOX1_Y607_E608D] | inactive: 0.782 |
| ESMLRYDVFGG [STOX1_Y607_E608D_YF] | inactive: 0.888 |

molecular target: SHP2 N-SH2 domain wild-type; experiment: as above; details: peptide library: pTyr-Var

| Binder | enrichment score |
| --- | --- |
| DLQDEYDFKRK [STAT1_Y170_C174R] | inactive: 0.618 |
| LLKNMYLMLDN [STAT1_Y203_K201N] | inactive: 1.69 |
| LLKKVYLMLDN [STAT1_Y203_M202V] | inactive: 1.6 |
| PLKFLYPNIDR [STAT1_Y668_K673R_YF] | inactive: 1.31 |
| PLKFLYPNIDK [STAT1_Y668_YF] | inactive: 1.63 |
| PKGTGCIKTEL [STAT1_Y701_Y701C] | inactive: 0.93 |
| QSVEPYTKQQL [STAT3_Y640] | inactive: 0.377 |
| QSLEPYTKQQL [STAT3_Y640_V637L] | inactive: 1.39 |
| QSMEPYTKQQL [STAT3_Y640_V637M] | inactive: 0.69 |
| IDGLEYLHSQG [STK11_Y166] | inactive: 1.04 |
| IDDLEYLHSQG [STK11_Y166_G163D] | inactive: 0.665 |
| EDDIIYTQDFT [STK11_Y362] | inactive: 0.617 |
| LGEGSYGKVKE [STK11_Y60] | inactive: 0.84 |
| VPDANYTSDEE [STK33_Y439] | inactive: 0.54 |
| VEDPEYAVTQL [STOML2_Y124] | inactive: 0.645 |
| VEDPEYAVTQP [STOML2_Y124_L129P] | inactive: 0.544 |
| ESMLRYEVYGG [STOX1_Y607] | inactive: 0.825 |
| ESMLRYDVYGG [STOX1_Y607_E608D] | inactive: 0.924 |
| ESMLRYDVFGG [STOX1_Y607_E608D_YF] | inactive: 0.729 |
